Measured values reported in EP2767275A1, “Nortriptyline, haloperidol or prochlorperazine edisylate for use in the treatment of tuberculosis as well as two screening methods” (priority 2013, dated 2014).

Tested on: M. tuberculosis
Details: data not shown

Row | SMILES | bacteriostatic activity in plate assay of M. tuberculosis
1 | O=C(CCCN1CCC(O)(c2ccc(Cl)cc2)CC1)c1ccc(F)cc1 [Haloperidol, 4-[4-(4-chlorophenyl)-4-hydroxy-1-piperidyl]-1-(4-fluorophenyl)-butan-1-one] | did not show bacteriostatic activity
2 | CNCCC=C1c2ccccc2CCc2ccccc21 [Nortriptyline, 3-(10,11-dihydro-5H-dibenzo[a,d]cyclohepten-5-ylidene)-N-methyl-1-propanamine] | did not show bacteriostatic activity
3 | CN1CCN(CCCN2c3ccccc3Sc3ccc(Cl)cc32)CC1 [Prochlorperazine edisylate, 2-chloro-10-[3-(4-methyl-1-piperazinyl)propyl]-10H-phenothiazine] | did not show bacteriostatic activity
